Experimental data from US20240076343A1.

Assays:
[1] = target: high-affinity hIL-2 receptor (IL-2Rαβγ) on NK-92 cells (human) (UniProt P01589); assay: cell-based or functional assay
[2] = target: intermediate affinity hIL-2 receptor complex (IL-2Rβγ) on TF1+IL-2Rβ cells (human) (UniProt P14784); assay: cell-based or functional assay
UniProt P14784, sequence (P14784 27-551, chain 1 of 2): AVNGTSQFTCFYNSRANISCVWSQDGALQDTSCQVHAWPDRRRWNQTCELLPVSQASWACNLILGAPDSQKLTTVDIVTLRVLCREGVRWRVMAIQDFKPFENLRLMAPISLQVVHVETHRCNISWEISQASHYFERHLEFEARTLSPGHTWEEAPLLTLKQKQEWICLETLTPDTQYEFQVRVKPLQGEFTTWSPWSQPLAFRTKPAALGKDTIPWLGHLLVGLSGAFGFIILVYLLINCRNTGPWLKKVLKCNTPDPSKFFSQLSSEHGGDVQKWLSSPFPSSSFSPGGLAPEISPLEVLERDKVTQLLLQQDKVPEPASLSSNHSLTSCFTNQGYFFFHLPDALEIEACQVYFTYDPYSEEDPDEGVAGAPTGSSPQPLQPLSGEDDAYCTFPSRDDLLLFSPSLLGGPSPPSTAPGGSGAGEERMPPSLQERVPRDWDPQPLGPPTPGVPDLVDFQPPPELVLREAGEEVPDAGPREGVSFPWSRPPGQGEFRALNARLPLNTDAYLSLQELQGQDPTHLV
UniProt P14784, sequence (chain, as listed by the source, chain 2 of 2): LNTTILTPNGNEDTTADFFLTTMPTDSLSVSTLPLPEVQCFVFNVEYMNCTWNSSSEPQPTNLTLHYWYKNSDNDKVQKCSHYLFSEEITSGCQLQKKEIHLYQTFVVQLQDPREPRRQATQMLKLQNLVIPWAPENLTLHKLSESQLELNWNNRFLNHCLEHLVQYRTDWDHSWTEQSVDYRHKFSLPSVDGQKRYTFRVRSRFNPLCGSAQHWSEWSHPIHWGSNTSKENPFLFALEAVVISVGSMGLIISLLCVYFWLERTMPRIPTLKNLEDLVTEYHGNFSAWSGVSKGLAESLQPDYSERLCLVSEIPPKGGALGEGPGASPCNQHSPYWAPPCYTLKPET

UniProt P01589, sequence (P01589 22-272, chain 1 of 3): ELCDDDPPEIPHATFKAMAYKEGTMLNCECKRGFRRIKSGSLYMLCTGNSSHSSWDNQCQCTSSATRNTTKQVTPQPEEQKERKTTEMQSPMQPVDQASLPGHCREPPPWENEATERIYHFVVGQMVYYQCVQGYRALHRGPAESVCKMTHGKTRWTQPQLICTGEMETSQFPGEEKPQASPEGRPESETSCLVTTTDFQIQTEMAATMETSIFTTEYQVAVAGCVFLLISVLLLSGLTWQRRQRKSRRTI
UniProt P01589, sequence (chain, as listed by the source, chain 2 of 3): as the sequence (P14784 27-551, chain 1 of 2) above
UniProt P01589, sequence (chain, as listed by the source, chain 3 of 3): as the sequence (chain, as listed by the source, chain 2 of 2) above

Row | Fold change from hIL-2 (NK-92) [1] | Fold change from hIL-2 (TF1 + IL-2Rβ) [2] | Binder
1 | 1 fold | 1 fold | 1H3-hIgG1-L6-hIL-2 (I92F) (protein) heavy: EVQLVESGGGLVQPGRSLKLSCAVSGFTFSDYAMAWVRQAPKKGLEWVATISYDGSRTYYRDSVKGRFTISRDNAKITLYLQMDSLRSEDTATYYCARHGSGYFDYWGQGVMVTVSS[not shown - about 450 residues with a human IgG1 Fc and changes] light: DTVLTQSPALAVSPGERVTISCRASESVRTGVHWYQQKPGQQPKLLIYGASNLESGVPARFSGSGSGTDFTLTIDPVEADDTATYFCQQSWNDPFTFGSGTKLEIKRTVAAPSVFIFPPSDEQLKSGTASVVCLLNNFYPREAKVQWKVDNALQSGNSQESVTEQDSKDSTYSLSSTLTLSKADYEKHKVYACEVTHQGLSSPVTKSFNRGEC
2 | 12 fold | 5 fold | 1H3-hIgG1-L6-hIL-2 (D20Y/I92R) (protein) heavy: EVQLVESGGGLVQPGRSLKLSCAVSGFTFSDYAMAWVRQAPKKGLEWVATISYDGSRTYYRDSVKGRFTISRDNAKITLYLQMDSLRSEDTATYYCARHGSGYFDYWGQGVMVTVSS[not shown - about 450 residues with a human IgG1 Fc and changes] light: DTVLTQSPALAVSPGERVTISCRASESVRTGVHWYQQKPGQQPKLLIYGASNLESGVPARFSGSGSGTDFTLTIDPVEADDTATYFCQQSWNDPFTFGSGTKLEIKRTVAAPSVFIFPPSDEQLKSGTASVVCLLNNFYPREAKVQWKVDNALQSGNSQESVTEQDSKDSTYSLSSTLTLSKADYEKHKVYACEVTHQGLSSPVTKSFNRGEC
3 | 1 fold | 1 fold | 1H3-hIgG1-L6-hIL-2 (E95A) (protein) heavy: EVQLVESGGGLVQPGRSLKLSCAVSGFTFSDYAMAWVRQAPKKGLEWVATISYDGSRTYYRDSVKGRFTISRDNAKITLYLQMDSLRSEDTATYYCARHGSGYFDYWGQGVMVTVSS[not shown - about 450 residues with a human IgG1 Fc and changes] light: DTVLTQSPALAVSPGERVTISCRASESVRTGVHWYQQKPGQQPKLLIYGASNLESGVPARFSGSGSGTDFTLTIDPVEADDTATYFCQQSWNDPFTFGSGTKLEIKRTVAAPSVFIFPPSDEQLKSGTASVVCLLNNFYPREAKVQWKVDNALQSGNSQESVTEQDSKDSTYSLSSTLTLSKADYEKHKVYACEVTHQGLSSPVTKSFNRGEC
4 | 1 fold | 1 fold | 1H3-hIgG1-L6-hIL-2 (I92E) (protein) heavy: EVQLVESGGGLVQPGRSLKLSCAVSGFTFSDYAMAWVRQAPKKGLEWVATISYDGSRTYYRDSVKGRFTISRDNAKITLYLQMDSLRSEDTATYYCARHGSGYFDYWGQGVMVTVSS[not shown - about 450 residues with a human IgG1 Fc and changes] light: DTVLTQSPALAVSPGERVTISCRASESVRTGVHWYQQKPGQQPKLLIYGASNLESGVPARFSGSGSGTDFTLTIDPVEADDTATYFCQQSWNDPFTFGSGTKLEIKRTVAAPSVFIFPPSDEQLKSGTASVVCLLNNFYPREAKVQWKVDNALQSGNSQESVTEQDSKDSTYSLSSTLTLSKADYEKHKVYACEVTHQGLSSPVTKSFNRGEC
5 | 1 fold | 1 fold | 1H3-hIgG1-L6-hIL-2 (E95K) (protein) heavy: EVQLVESGGGLVQPGRSLKLSCAVSGFTFSDYAMAWVRQAPKKGLEWVATISYDGSRTYYRDSVKGRFTISRDNAKITLYLQMDSLRSEDTATYYCARHGSGYFDYWGQGVMVTVSS[not shown - about 450 residues with a human IgG1 Fc and changes] light: DTVLTQSPALAVSPGERVTISCRASESVRTGVHWYQQKPGQQPKLLIYGASNLESGVPARFSGSGSGTDFTLTIDPVEADDTATYFCQQSWNDPFTFGSGTKLEIKRTVAAPSVFIFPPSDEQLKSGTASVVCLLNNFYPREAKVQWKVDNALQSGNSQESVTEQDSKDSTYSLSSTLTLSKADYEKHKVYACEVTHQGLSSPVTKSFNRGEC
